The source of these data is the supplement of paper PMC11417369.

± gives the standard deviation of the averaged measurements. The list shows a part of the results.

The test system of this assay is PfAP2-I AP2 domain 3 (GST-tagged). The assay is described as follows: gcPBM binding intensity (ln(normalized median fluorescence intensity)); higher = stronger DNA binding. Summed up:
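GST-tagged P. falciparum DNA-binding domains, expressed in E. coli (about 25 μg on average), were applied for 1 h to an Agilent 4 × 180k array of primer-extended double-stranded 36-bp intergenic genomic probes plus negative controls. The binding buffer was 1× PBS with 1% milk, 0.2 mg/ml BSA, 0.5% salmon testes DNA and 0.03% Triton X-100. Bound protein was detected with Alexa488 anti-GST antibody and scanned at 488 nm. Binding intensity is the highest Masliner-normalised natural-log median intensity across replicate spots of either probe orientation.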
Regarding “AGTCATTAAATATAATGTACATGGAAAAACAGCTGA [XGTACX_site7944]”, the “gcPBM binding intensity (ln)” value worked out at 7.92 ± 0.71.
Take “GGAATATTTATACATACACACATATATTTATTTATA [CACACA_site6883]”: the “gcPBM binding intensity (ln)” value stood at 7.77 ± 0.51.
Regarding “CAAGCACCCAGACACACACACACACCCACACCCACA [CACACA_site369]”, the “gcPBM binding intensity (ln)” value was 7.83 ± 0.41.
With “ATAAAAATAACATATAAACACACATATATATATATA [CACACA_site9267]” the figure was 9.19 ± 0.53; with “ATGTAGACATAATGGGGTACAAAAAAAAAAAAAAAA [XGTACX_site881]”, 8.37 ± 0.74; with “AACAGATATATATGTAGTACATGTTCTAGATATTTT [XGTACX_site1208]”, 7.62 ± 0.49.
“AATAATTGTTAAAGGTGTACAATACGTATGTAAGAA [XGTACX_site1328]”: the “gcPBM binding intensity (ln)” value is 8.7 ± 0.46.
With “GTAAGAAACGGACACACACACATATATATATATATA [CACACA_site4593]” the figure was 9.51 ± 0.4; with “AATATATTGCACCATTGGACCTGAATAATTCTTCCA [CACACA_negctrl_site1071]”, 11.8 ± 0.81; with “TAAATAATCATAGTTCTACACACCTATATTGCAAAA [CACACA_site8190]”, 7.76 ± 0.57.
On to “AAAAAAAAAAATTCCAGTACACACAATAATACTAAA [XGTACX_site5930]”, for which the “gcPBM binding intensity (ln)” value worked out at 7.75 ± 0.54.
“ATATATATAATATGATGTACTATTTTGATAAAAAAT [XGTACX_site3975]”: the “gcPBM binding intensity (ln)” value worked out at 8.23 ± 0.54.
With “AATAATTAAATATATTTATAACAGGAAAATATTTAT [XGTACX_negctrl_site175]” the figure was 7.75 ± 0.67; with ATAAATTATATTCAAGTGCATGTAACTTATTATTAT, 8.29 ± 0.32.
With “ATATATATATAAATATAAATATATATATATATATAT [CACACA_negctrl_site1685]” the figure was 9.21 ± 0.74.
For the sequence “GTTATAGAAGCATTCACACACACACCGACATACACA [CACACA_site4914]”, the “gcPBM binding intensity (ln)” value was 8.2 ± 0.16.
Under “ACAAAGAACTATAATACACACAAGAATATATTGGAT [CACACA_site7771]” stands 7.82 ± 0.81; under “AAAAAAATCACATAATATACTTTATTTTATTTTGTA [GTGCAC_negctrl_site562]”, 7.17 ± 0.59.
Under “TATATATAGAAACACACACACACATATATATATATT [CACACA_site2539]” stands 7.72 ± 0.52.
With “TTATAAGATTTATGTACACACATATACACCCCTCTA [CACACA_site4562]” the figure was 8.17 ± 0.28; with “GTTATAGAAGCATTCACACACACACGGACATACACA [CACACA_site6801]”, 8.27 ± 0.2.
As for “TTTTTTTATAAAAATGAACACACACCGATATATATA [CACACA_site9161]”, the “gcPBM binding intensity (ln)” value amounted to 8.34 ± 0.57.
With AATATATACATATGTATGCACTTTTTAATTATTTTT, the “gcPBM binding intensity (ln)” value came out at 9.18 ± 0.085.
As for “TATTATAATATATTTGTGCACATAATACCTCCGCTA [GTGCAC_site9570]”, the “gcPBM binding intensity (ln)” value turned out to be 10.7 ± 0.18.
Under “ATATTTTTTATAAAATGTACTTATTATTAGAATATA [XGTACX_site2460]” stands 7.75 ± 0.31.
With “ACATATAAGTTATATACACACAATAATATGTAAATA [CACACA_site6766]” the figure was 7.58 ± 0.33; with “TACAAAATATGGTAATAAAGTAGTTACATGAATTGG [XGTACX_negctrl_site522]”, 7.47 ± 0.77; with “TAGTAAGAATTACTGTGTACTAAAATATTAAAAAGT [XGTACX_site2578]”, 8.03 ± 0.57.
Take “AAATAGTCTTCTCTTGCATGTAACAAATATATATAT [TGCATGCA_site428]”: the “gcPBM binding intensity (ln)” value was determined as 8.89 ± 0.16.
As to “AATAAAAACAAACAAAAAAACAAATAAATAAATAAA [CACACA_negctrl_site483]”, the “gcPBM binding intensity (ln)” value amounted to 8.11 ± 0.51.
As for “TAACAAAATGTAAATAAACACACATATATATATATA [CACACA_site8352]”, the “gcPBM binding intensity (ln)” value was found to be 9.34 ± 0.27.
In the case of “TATTATATAATTTTAACACACAAGAATATAAACTTT [CACACA_site1363]”, the “gcPBM binding intensity (ln)” value is 7.73 ± 0.62.
With “TGAAGGAATACAGCTCGTACATGTGTAAAGAGATAA [XGTACX_site500]”, the “gcPBM binding intensity (ln)” value is 7.86 ± 0.6.
As to “TAATTTAAATGATGTAGTACATATAAATATATCTAA [XGTACX_site262]”, the “gcPBM binding intensity (ln)” value worked out at 7.64 ± 0.3.
Take “AAAAAGAAAAAACTTACACACATATATACCCCCATG [CACACA_site4463]”: the “gcPBM binding intensity (ln)” value worked out at 9.335 ± 0.064.
Under “AACATTCTATGTTGCACACAAAGAGAAAAATTTATT [CACACA_site3995]” stands 9.01 ± 0.028; under “ATGGAAATTTTATCATGTACATATACCGTTGAATAA [XGTACX_site5420]”, 7.92 ± 0.53; under “AATAAAAAAATTAAAATTAAAAAATTAAAACTTAAA [CACACA_negctrl_site987]”, 6.96 ± 0.49.
Take “ACTATAAATATATACACATGCGCACACACAAGTGGG [TGCATGCA_site432]”: the “gcPBM binding intensity (ln)” value was 8.34 ± 0.56.
In the case of “TACCTATAAAAGTACACACACACACGGATATAAATA [CACACA_site6569]”, the “gcPBM binding intensity (ln)” value came out at 8.32 ± 0.18.
As to “ATTGATCTTTATTGTTGTACATTAAACGTTAATTTT [XGTACX_site1788]”, the “gcPBM binding intensity (ln)” value was determined as 7.86 ± 0.52.
“TCATACATTTTCCTTGCACACATTTATAATTAATGT [CACACA_site614]”: the “gcPBM binding intensity (ln)” value is 8.78 ± 0.35.
Under “TAATTTATTGTACGTGCATGCTATTTTTTATTTTTA [TGCATGCA_site1059]” stands 8.64 ± 0.68; under “TTGTAATATATAAAAGTGCATATATGGTTCCATATA [GTGCAC_site9544]”, 9.38 ± 0.14.
